ChEMBL document CHEMBL5308541, “MAIP: An Open-Source Tool to Enrich High-Throughput Screening Output and Identify Novel, Druglike Molecules with Antimalarial Activity” (ACS Med Chem Lett, 2023)
About 540 (0.36%) of roughly 150,000 compounds showed an effect of 50% or more. The list shows a part of the results.

These compounds were tested on Plasmodium falciparum (assay: Primary screen in NF54 nanoGlo assay, in single point, at 2uM, 72h; a lower Z score goes with more inhibition). Conditions: timepoint 72 hour.
Assay type: functional, Erythrocyte

For `CCOc1cccc(CN(CCO)C(=O)Cc2ccc(O)c(Cl)c2)c1`, which “% Inhibition” value is on record?
Its value is -4%.

What about the Z score of the same compound?
The Z score was 0.78.

Which results are given for `Cc1ccc(-c2ccc(C(=O)Nc3cccnc3N3CCOCC3)c(F)c2)cc1C`?
% Inhibition: -8%; Z score: 1.44

Which “% Inhibition” value does the source give for `O=C(NC1CCCCC1)C1CC(O)CN1C1CCN(C(=O)c2ccc3ncccc3c2)CC1` (stereo unspecified) here?
The value was -11%.

What about the Z score of the same compound?
The Z score was 2.

`O[C@H]1CCN(C2CCN(c3ccc(-n4cnc5ccccc54)cc3)CC2)C1` was tested. Which “% Inhibition” value did it give?
The value was -4%.

What about the Z score of the same compound?
Its Z score is 0.72.

For `O=C([C@@H]1CCCN1c1ncnc2[nH]cnc12)N1CCC(c2noc3cc(F)ccc23)CC1`, which “% Inhibition” value is on record?
Its value is -14%.

What about the Z score of the same compound?
The Z score was 2.11.

With `Cc1cccnc1OCC1CCN(Cc2nncn2C)CC1` as the compound, how does the “% Inhibition” value read?
The value was -21%.

And the Z score?
The Z score was 4.14.

How did the “% Inhibition” value turn out when `Oc1cccc(CN2CCC[C@H](NCc3cnc(N4CCOCC4)nc3)C2)c1` was run?
Its value is -6%.

And the Z score?
Its Z score is 0.91.

For `COc1ccccc1-c1ccc(N[C@H]2CCCN(Cc3cccs3)C2)nn1`, which “% Inhibition” value is on record?
Its value is -19%.

What about the Z score of the same compound?
Its Z score is 4.18.

Which results are given for `COc1ccccc1C(=O)Nc1cccc(Nc2nc(-c3ccccc3)c3ccc(C)cc3n2)c1`?
% Inhibition: -6%; Z score: 0.93

Which “% Inhibition” value does the source give for `O=C(c1ccncc1)N1CC[C@H](NC2CCN(CC(F)(F)F)CC2)C1` here?
Its value is 5%.

What about the Z score of the same compound?
The Z score was -0.96.

With `COc1ccc(OC2CCN(C3CCCC3)CC2)c(C(=O)NCc2cccc3[nH]ccc23)c1` as the compound, how does the “% Inhibition” value read?
Its value is 44%.

What about the Z score of the same compound?
The Z score was -7.54.

For `CC(C)n1ncc2cc(CNc3nnc(-c4ccncc4)o3)cnc21`, which “% Inhibition” value is on record?
The value was -1%.

And the Z score?
Its Z score is 0.29.

What does the source list for `CC(=O)N1CC2CCCN3CCCC(C23)C1CCCC(=O)N1CCC(N2CCCCC2)CC1` (stereo unspecified)?
% Inhibition: 9%; Z score: -1.58

Which results are given for `O=C(NC1CNCC1O)c1cc(Cl)ccc1Br` (stereo unspecified)?
% Inhibition: -6%; Z score: 0.9

Which results are given for `CC(C)c1cccc(C(=O)N2CC(O)C(Cc3cnccn3)C2)c1` (stereo unspecified)?
% Inhibition: -7%; Z score: 1.2

Which results are given for `CC(=O)N(c1ccccc1)c1nc([C@H]2Nc3ccccc3-c3nc4ccccc4n32)cs1`?
% Inhibition: -7%; Z score: 1.01

With `Cc1cnc(NCCCn2ncc3ccccc32)nc1-c1cnn(C)c1` as the compound, how does the “% Inhibition” value read?
Its value is -9%.

And the Z score?
Its Z score is 1.79.

Which “% Inhibition” value does the source give for `Cc1ccc(-c2noc(CCCn3cncn3)n2)nn1` here?
Its value is -6%.

What about the Z score of the same compound?
Its Z score is 1.06.

Which “% Inhibition” value does the source give for `CN(C[C@H](O)COc1cccc(CNCCCOc2cccnc2)c1)C1CCCCC1` here?
The value was 31%.

And the Z score?
Its Z score is -6.24.

Which “% Inhibition” value does the source give for `CC[C@H](Nc1nccc(-c2ccncc2)n1)c1cnn(C)c1` here?
The value was 1%.

What about the Z score of the same compound?
Its Z score is -0.2.

`O=C(NC1CCN(CC(F)(F)F)CC1)c1cccc(Oc2cnccn2)c1` was tested. Which “% Inhibition” value did it give?
Its value is -5%.

And the Z score?
Its Z score is 0.86.

What does the source list for `Fc1cc(CNC[C@H]2CCN(CC(F)(F)F)C2)c2ncccc2c1`?
% Inhibition: 2%; Z score: -0.44

`COC[C@H]1CCCN(S(=O)(=O)NCc2noc(-c3ccco3)n2)C1` was tested. Which “% Inhibition” value did it give?
Its value is -10%.

What about the Z score of the same compound?
The Z score was 1.76.

With `c1ccc(CCCN2CC3CCC(C2)N(C[C@H]2[C@@H]4CNC[C@@H]42)C3)cc1` (stereo partly specified) as the compound, how does the “% Inhibition” value read?
Its value is 1%.

What about the Z score of the same compound?
The Z score was -0.26.

For `O=C(c1ccc(N2CCCNCC2)nc1)N1CCC(Cn2cccn2)CC1`, which “% Inhibition” value is on record?
Its value is -4%.

What about the Z score of the same compound?
The Z score was 0.63.

How did the “% Inhibition” value turn out when `OCC1CCN(Cc2ccccc2)CC1Nc1ccc2nccnc2n1` (stereo unspecified) was run?
The value was 19%.

What about the Z score of the same compound?
Its Z score is -3.29.

What does the source list for `O=C(Nc1ccc(Br)c(F)c1)N1CCC(c2ncc3n2CCCC3)CC1`?
% Inhibition: -18%; Z score: 3.94

How did the “% Inhibition” value turn out when `COc1ccc(C2CC2CC(=O)N(C)c2cccc3ncccc23)cc1` (stereo unspecified) was run?
The value was -3%.

What about the Z score of the same compound?
The Z score was 0.41.

How did the “% Inhibition” value turn out when `CN(C)CCOc1ccccc1-c1cccc(C(=O)N2CC[C@H](CN)C2)c1` was run?
The value was -10%.

And the Z score?
The Z score was 1.7.

`O=C([C@H]1CCCNCC1)N1CCC(N2CCC(O)CC2)CC1` was tested. Which “% Inhibition” value did it give?
The value was 1%.

And the Z score?
Its Z score is -0.22.

For `CC(C)Cc1cc(CNC(=O)c2cc(=O)c3ccccc3[nH]2)no1`, which “% Inhibition” value is on record?
Its value is 0%.

What about the Z score of the same compound?
The Z score was 0.01.

Which “% Inhibition” value does the source give for `CCc1ccc(NC(=O)CCN2CC[C@H](NC(C)=O)C2)cc1` here?
The value was -7%.

And the Z score?
Its Z score is 1.19.

Which “% Inhibition” value does the source give for `COc1cccc(Oc2ccc(NC(=O)[C@H]3CCCN(C4CCOCC4)C3)cn2)c1` here?
Its value is -7%.

What about the Z score of the same compound?
Its Z score is 1.18.
